# In all, about 1,300 compounds went through this assay and about 150 (12%) were called active. Not shown: some 30% with an inconclusive outcome. Calls come from the whole dose curve; as a rule, active = well fitted cell-killing curve with a large enough effect; inconclusive = small, poorly fitted or top-dose-only effect, or effect the other way; inactive = flat fitted curve, though single readings scatter. The list shows a part of the results, in another mix than the full data.
# Assay: qHTS of small molecules that selectively kill Giardia lamblia: Hit Validation in HepG2 cytotox;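 note: compound exposure lasted overnight at 37 deg C; nearly all actives have a fitted effect of over 55% in size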;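 for activity change, negative = cytotoxicity: viability measured as cellular ATP by ATPLite luminescence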
# Details: cell viability; Potency: HepG2 cytotoxicity; series mostly up to 38.3 µM; activity change, negative = cytotoxicity: at the top concentration
# Text: Giardia lamblia is a human pathogen afflicting impoverished nations, and the most common cause of outbreaks of diarrhea in the United States. Giardia has been classified by the CDC as a category B bioterrorism organism. The favored anti giardiasis drugs in the US are metronidazole or tinidazole, compounds that have undesirable side effects. Moreover, increasing resistance to drug regimes and recurrence are a concern. It is thus clear that alternative drug treatments are needed.
# In a collaboration between the University of Maryland, College Park and the NIH Chemical Genomics Center, a bioluminescence Giardia viability assay based on the trophozoites' ATP content was developed. This assay is suitable for high throughput screening, and miniaturized the assay for compound screening in 1536-well plates. The goal of the project is to screen the Molecular Libraries Small Molecule Repository (MLSMR) for compounds that selectively kill Giardia trophozoites. This counterscreen looks at the toxicity of the compounds against the human HepG2 cell line.
# NIH Chemical Genomics Center [NCGC]
# NIH Molecular Libraries Probe Centers Network [MLPCN]
# Assay Submitter (PI): Osnat Herzberg, University of Maryland, College Park, MD.
# 4 uL of HepG2 cells ae dispensed into white 1536-well plates. They are incubated overnight at 37 deg C and then 23 nL of compounds are transferred to the wells with a pintool. Plates are incubated overnight at 37 deg C. 2 uL of ATPLite is added and the plates are incubated for 15 min at room temperature before they are read on the ViewLux for luminiescence.
# % is set by controls: 0 for no effect and ±100 for the full control effect; potency is the fitted concentration of half-maximal effect.
SMILES,"activity change, negative = cytotoxicity",Potency
O=C1CC(SC(=Nc2ccccc2)Nc2ccccc2)C(=O)N1c1cccc2ccccc12 (stereo not drawn),inactive: 15%,–
CCc1nn2c(=O)c(S(=O)(=O)Nc3ccc(Cl)cc3)c(C)nc2s1,inactive: 8.24%,–
N/C(=N\c1nc2ccccc2o1)NC(=O)C(Cc1ccccc1)N1C(=O)c2ccccc2C1=O (stereo not drawn),inactive: 7.34%,–
Cc1ccc(OCC(=O)c2cc(C)n(Cc3cccs3)c2C)c([N+](=O)[O-])n1,inactive: -1.65%,–
CC(C)(C)c1cc(C(=O)N/N=C/c2ccncc2)n[nH]1,inactive: 8.9%,–
C[C@@H]1[C@H]2[C@@H](O[C@@H]3O[C@H](CO)[C@@H](O)[C@H](O)[C@H]3O)OC=C(C(=O)O)[C@H]2C[C@@H]1O,inactive: 20.3%,–
O=C(CCN=C1NS(=O)(=O)c2ccccc21)OCC(=O)c1ccc(F)c(F)c1,inactive: 3.31%,–
O=c1cccc(-c2ccccc2)[nH]1,inactive: 6.98%,–
O=C1NC(=S)S/C1=C\C=C\c1ccc([N+](=O)[O-])o1,–,active: 3290 nM
CC(=O)NC(Cc1cccc(C)c1)C(=O)NC1CCN(c2ncccc2[N+](=O)[O-])CC1 (stereo not drawn),inactive: 1.07%,–
Cc1ccc([N+](=O)[O-])cc1NC(=O)C1CCN(S(C)(=O)=O)CC1,inactive: 20.3%,–
CCn1cc(-c2cc(C(=O)O)c3ccccc3n2)cn1,–,active: 2070 nM
CCOC(=O)C1CCN(c2ccc([N+](=O)[O-])c(C(C)=O)c2)CC1,inactive: 16.6%,–
COc1ccc(OC)c2c(C)c(C)[nH]c12,inactive: 13.6%,–
Cc1cc(C2=NNC(=NC3CC3)SC2)c(C)n1-c1ccccc1F,–,active: 927 nM
S=c1[nH]nc2ccccn12,inactive: 10.4%,–
Cc1onc(-c2ccccc2)c1NC(=O)N(Cc1ccccc1)C(C)C,inactive: 2.45%,–
O=C(COC(=O)c1cc(Cl)ccc1O)NC(=O)NCc1ccccc1,inactive: 19.2%,–
CCCCc1cc(=O)oc2c(C)c(OCC(=O)NCc3ccccn3)ccc12,inactive: 22.9%,–
COc1ccc(-c2ccc([C@H]3[C@@H]4C=CCC[C@@]4(C)C(=O)N3Cc3ccccc3)c(F)c2)cc1OC,inactive: -18.1%,–
O=C(Nc1ccc(O)c2c(=O)cc(-c3ccccc3Cl)oc12)c1ccc(F)cc1,inactive: 5.41%,–

SMILES,"activity change, negative = cytotoxicity",Potency
O=C(Cc1ccc(Cl)cc1)Nc1ncc([N+](=O)[O-])s1,inactive: -20.5%,–
C=CCNc1ncnc2sc(SC)nc12,inactive: 12.9%,–
Cc1ccc(-c2ccc(/C=N/N3C(=O)C4C5C=CC(CC5)C4C3=O)o2)c([N+](=O)[O-])c1 (stereo not drawn),inactive: 25.7%,–
O=C(Nc1ncc([N+](=O)[O-])s1)c1cccc([N+](=O)[O-])c1,–,active: 3290 nM
COCc1ccc(C(=O)N2CCCC(C(=O)c3ccc(Cl)cc3C)C2)o1 (stereo not drawn),inactive: 12.9%,–
O=C(CSc1ccsc1[N+](=O)[O-])NCc1ccccc1,inactive: 23.3%,–
O=c1sc(N2CCN(c3ccc(F)cc3)CC2)nc2ccsc12,inactive: 21.6%,–
CCN(CC)CCCC(C)Nc1cc(/C=C/c2ccccc2Cl)nc2cc(Cl)ccc12 (stereo not drawn),–,active: 2070 nM
N#Cc1ccc(-c2c(-c3ccccc3)ncc3cc(F)ccc23)cc1,inactive: -5.65%,–
COc1ccc2cc(-c3cc(C(=O)OCC(=O)Nc4c(C)n(C)n(-c5ccccc5)c4=O)c4ccccc4n3)ccc2c1,–,active: 464 nM
O=C(COc1cccnc1[N+](=O)[O-])NCCc1ccc(Cl)cc1,inactive: 2.14%,–
COc1cc(C(=S)N2CCOCC2)ccc1OC(=O)/C=C/c1ccco1,inactive: 12.5%,–
O=C(NCCO)c1ccc2c3n(nc2c1)-c1ccccc1CO3,–,active: 2930 nM
COC(=O)[C@]1(C)N[C@H](CN(C)S(=O)(=O)c2ccc(-c3ccccc3)cc2)[C@@H]2C(=O)N(Cc3ccccc3)C(=O)[C@@H]21,inactive: 18.3%,–
COc1ccc(Cc2nnc(NC(=O)Nc3ccccc3F)s2)cc1OC,inactive: 12.6%,–
COc1ccc(-n2nc([N+](=O)[O-])c(=NCCc3ccc(C)cc3)n2O)cc1,inactive: 0.151%,–
O=C(COc1ccccc1)N=C1SC2CS(=O)(=O)CC2N1c1ccccc1F (stereo not drawn),inactive: 1.52%,–
O=C(c1cc(Cl)ccc1Cl)N1CCN(Cc2ccccc2)CC1,inactive: 6.29%,–
CC(=O)c1c(C)n([O-])c2cc(F)c(F)cc2[n+]1=O,inactive: -4.47%,–
O=C(Nc1nnc(SCC(=O)N2CCOCC2)s1)c1ccccc1Cl,–,active: 2070 nM
CC(=O)c1sc(NC(=O)c2ccc(C)c(C)c2)nc1C,inactive: -14.5%,–

SMILES,"activity change, negative = cytotoxicity",Potency
Cc1ccc(S(=O)(=O)N2[C@@H](c3ccc(F)cc3)C(C(=O)O)=CC[C@H]2c2ccc(Cl)cc2)cc1,inactive: 2.24%,–
O=C(Cn1cnc2c(OCc3ccccc3)ncnc21)NCCCc1ccccc1,inactive: 8.11%,–
CC(=O)Nc1nc(-c2cc([N+](=O)[O-])cs2)cs1,inactive: 1.82%,–
CCCNC(=O)Cn1c(=O)n(C)c2ccccc21,inactive: 7.3%,–
OCCOCCNc1ncnc2c1c(-c1ccccc1)cn2-c1ccccc1,inactive: 1.82%,–
Cc1[nH]n(C2=NCCS2)c(=O)c1N=Nc1cccc(C(F)(F)F)c1,–,active: 4650 nM
CN(C(=O)c1ccc(NC(=O)Cc2ccc(NC(=O)C3CCCN(S(=O)(=O)c4cccc([N+](=O)[O-])c4)C3)cc2)cc1)C1CCCC1 (stereo not drawn),inactive: 6.63%,–
Cc1ccc(S(=O)(=O)N2[C@@H](c3ccc(F)cc3)C(C(=O)O)=CC[C@H]2c2ccc3c(c2)OCO3)cc1,inactive: 11.6%,–
COc1ccc(CCNc2oc(COc3ccc(Br)cc3)nc2C#N)cc1OC,inactive: 1.26%,–
CCOC(=O)c1c(NC(=O)CS(=O)(=O)c2cn(CC)c3ccccc23)sc2c1CCCCC2,inactive: 1.24%,–
COc1ccc(-c2nc(CSCC(=O)NC3CCCC3)c(C)o2)cc1OC,inactive: 11.8%,–
O=[N+]([O-])c1ccc(N2CCN(CCO)CC2)c2ncccc12,inactive: 3.63%,–
COc1ccccc1-n1cc2c([N+](=O)[O-])cc([N+](=O)[O-])cc2n1,inactive: 11.2%,–
CC(C)C[C@H](NC(=O)c1[nH]cnc1C(=O)N[C@H](C)c1ccccc1)C(=O)OCc1ccccc1,inactive: 1.68%,–
CC(=O)Nc1ccc(/C=C/c2noc(-c3ccccc3O)n2)cc1,inactive: 0.21%,–
CC1(C)Oc2ccc3ccc(=O)oc3c2C(/C=N/O)C1=O (stereo not drawn),inactive: 16.5%,–
CSc1cccc(NS(=O)(=O)c2cn(C)cn2)c1,inactive: -0.564%,–
CC(=O)NCCNC(=O)c1ccc(CSc2ccc(Cl)cc2)cc1,inactive: 11.1%,–
CC(C)Cn1c(=S)[nH]c2cc(C(=O)NCc3ccccc3F)ccc2c1=O,inactive: -0.596%,–
COc1cc2sc(-c3ccccc3OC)c(-c3ccc(O)cc3)c2cc1OC,inactive: -0.122%,–
c1ccc(CCNc2ncnc3nc[nH]c23)cc1,inactive: 10.5%,–
